The other results are listed elsewhere or left out.
What was measured:
Experiment in all cases: glycan array binding signal (z-score within array); higher = stronger binding
Conditions in all cases: glycan notation: IUPAC condensed, linker removed
[1] = molecular target: Gal(b1-4)GlcNAc(b1-2)[Gal(b1-4)GlcNAc(b1-4)]Man(a1-3)[GlcNAc(b1-4)][Gal(b1-4)GlcNAc(b1-2)Man(a1-6)]Man(b1-4)GlcNAc(b1-4)GlcNAc
Outline: (§1)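 Glycan array binding is given as a within-array Z-score, which can be read as non-binding when negative. The arrays, 3228 of them, came from the Consortium for Functional Glycomics database and were retained only where the protein sequence was available. Z-scores were averaged across arrays of the same protein sequence at different concentrations or buffers and across linkers.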

[2] = molecular target: Gal(b1-4)GlcNAc(b1-2)[Gal(b1-4)GlcNAc(b1-4)]Man(a1-3)[GlcNAc(b1-4)][Gal(b1-4)GlcNAc(b1-2)[Gal(b1-4)GlcNAc(b1-6)]Man(a1-6)]Man(b1-4)GlcNAc(b1-4)GlcNAc
Outline: as §1

[3] = molecular target: Gal(b1-4)GlcNAc(b1-2)[Gal(b1-4)GlcNAc(b1-4)]Man(a1-3)[GlcNAc(b1-4)][Gal(b1-4)GlcNAc(b1-2)[Gal(b1-4)GlcNAc(b1-6)]Man(a1-6)]Man(b1-4)GlcNAc(b1-4)[Fuc(a1-6)]GlcNAc
Outline: as §1

[4] = molecular target: Gal(b1-4)GlcNAc(b1-2)[Gal(b1-4)GlcNAc(b1-6)]Man(a1-6)[Gal(b1-4)GlcNAc(b1-2)Man(a1-3)]Man(b1-4)GlcNAc(b1-4)GlcNAc
Outline: as §1

[5] = molecular target: Gal(b1-4)GlcNAc(b1-2)[Gal(b1-4)GlcNAc(b1-6)]Man(a1-6)[Gal(b1-4)GlcNAc(b1-2)Man(a1-3)]Man(b1-4)GlcNAc(b1-4)[Fuc(a1-6)]GlcNAc
Outline: as §1

[6] = molecular target: Gal(b1-4)GlcNAc(b1-2)[Gal(b1-4)GlcNAc(b1-6)]Man(a1-6)[GlcNAc(b1-4)][Gal(b1-4)GlcNAc(b1-2)Man(a1-3)]Man(b1-4)GlcNAc(b1-4)GlcNAc
Outline: as §1

[7] = molecular target: Gal(b1-4)GlcNAc(b1-3)Gal(b1-3)GlcNAc
Outline: as §1

[8] = molecular target: Gal(b1-4)GlcNAc(b1-3)Gal(b1-4)Glc
Outline: as §1

[9] = molecular target: Gal(b1-4)GlcNAc(b1-3)Gal(b1-4)GlcNAc
Outline: as §1

[10] = molecular target: Gal(b1-4)GlcNAc(b1-3)Gal(b1-4)GlcNAc(b1-3)Gal(b1-4)GlcNAc
Outline: as §1

[11] = molecular target: Gal(b1-4)GlcNAc(b1-3)Gal(b1-4)[Fuc(a1-3)GlcNAc(b1-6)]Gal(b1-4)Glc
Outline: as §1

[12] = molecular target: Gal(b1-4)GlcNAc(b1-3)Gal(b1-4)[Fuc(a1-3)]GlcNAc(b1-3)Gal(b1-4)[Fuc(a1-3)]GlcNAc
Outline: as §1

[13] = molecular target: Gal(b1-4)GlcNAc(b1-3)GalNAc
Outline: as §1

[14] = molecular target: Gal(b1-4)GlcNAc(b1-3)[Gal(b1-4)GlcNAc(b1-6)]Gal(b1-4)GlcNAc
Outline: as §1

[15] = molecular target: Gal(b1-4)GlcNAc(b1-3)[Gal(b1-4)GlcNAc(b1-6)]GalNAc
Outline: as §1

[16] = molecular target: Gal(b1-4)GlcNAc(b1-3)[GlcNAc(b1-6)]Gal(b1-4)GlcNAc
Outline: as §1

[17] = molecular target: Gal(b1-4)GlcNAc(b1-6)Gal(b1-4)GlcNAc
Outline: as §1

[18] = molecular target: Gal(b1-4)GlcNAc(b1-6)GalNAc
Outline: as §1

[19] = molecular target: Gal(b1-4)GlcNAc(b1-6)[Gal(b1-3)]GalNAc
Outline: as §1

Gal(b1-4)GlcNAc6P = molecular target: Gal(b1-4)GlcNAc6P
Outline: as §1

Gal(b1-6)Gal = molecular target: Gal(b1-6)Gal
Outline: as §1

Gal3S(b1-3)GalNAc = molecular target: Gal3S(b1-3)GalNAc
Outline: as §1

Gal3S(b1-3)GlcNAc = molecular target: Gal3S(b1-3)GlcNAc
Outline: as §1

[20] = molecular target: Gal3S(b1-3)[Fuc(a1-4)]GlcNAc
Outline: as §1

Gal3S(b1-4)Glc = molecular target: Gal3S(b1-4)Glc
Outline: as §1

Gal3S(b1-4)Glc6S = molecular target: Gal3S(b1-4)Glc6S
Outline: as §1

Gal3S(b1-4)GlcNAc = molecular target: Gal3S(b1-4)GlcNAc
Outline: as §1

Gal3S(b1-4)GlcNAc6S = molecular target: Gal3S(b1-4)GlcNAc6S
Outline: as §1

[21] = molecular target: Gal3S(b1-4)[Fuc(a1-3)]Glc
Outline: as §1

[22] = molecular target: Gal3S(b1-4)[Fuc(a1-3)]Glc6S
Outline: as §1

Gal3S4S(b1-4)GlcNAc = molecular target: Gal3S4S(b1-4)GlcNAc
Outline: as §1

Gal3S6S(b1-4)GlcNAc = molecular target: Gal3S6S(b1-4)GlcNAc
Outline: as §1

Gal3S6S(b1-4)GlcNAc6S = molecular target: Gal3S6S(b1-4)GlcNAc6S
Outline: as §1

Gal4S(b1-4)GlcNAc = molecular target: Gal4S(b1-4)GlcNAc
Outline: as §1

Gal4S6S(b1-4)GlcNAc = molecular target: Gal4S6S(b1-4)GlcNAc
Outline: as §1

Gal6P(b1-4)GlcNAc = molecular target: Gal6P(b1-4)GlcNAc
Outline: as §1

Gal6S(b1-3)GlcNAc = molecular target: Gal6S(b1-3)GlcNAc
Outline: as §1

B1: ArathEULS3 (Arabidopsis thaliana), Q945P1 (protein)
chain: MEHHHQHHRHHQRDDGEDDRQSFGVPPPHVDAPPQPHGLYQSQPHFDPYAPTPQAPAPYRSETQFEPHAPPPYRSEPYFETPAPPPSFGHVSHVGHQSPNESYPPEHHRYGGYQQPSNSLLESHGDHSGVTHVAHHSSNQPQSSSGVYHKPDENRLPDNLAGLAGRATVKVYSKAEPNYNLTIRDGKVILAPADPSDEAQHWYKDEKYSTKVKDADGHPCFALVNKATGEAMKHSVGATHPVHLIRYVPDKLDESVLWTESKDFGDGYRTIRMVNNTRLNVDAYHGDSKSGGVRDGTTIVLWDWNKGDNQLWKIFPFILEQKLISEEDLNSAVDHHHHHH
[1]
  glycan array binding signal (z-score): -0.149
[2]
  glycan array binding signal (z-score): 5.54
[3]
  glycan array binding signal (z-score): 0.012
[4]
  glycan array binding signal (z-score): -0.242
[5]
  glycan array binding signal (z-score): -0.026
[6]
  glycan array binding signal (z-score): -0.312
[7]
  glycan array binding signal (z-score): -0.332
[8]
  glycan array binding signal (z-score): -0.056
[9]
  glycan array binding signal (z-score): -0.162
[10]
  glycan array binding signal (z-score): -0.236
[11]
  glycan array binding signal (z-score): -0.233
[12]
  glycan array binding signal (z-score): -0.246
[13]
  glycan array binding signal (z-score): -0.12
[14]
  glycan array binding signal (z-score): -0.182
[15]
  glycan array binding signal (z-score): -0.101
[16]
  glycan array binding signal (z-score): -0.1
[17]
  glycan array binding signal (z-score): -0.242
[18]
  glycan array binding signal (z-score): -0.013
[19]
  glycan array binding signal (z-score): -0.266
Gal(b1-4)GlcNAc6P
  glycan array binding signal (z-score): -0.17
Gal(b1-6)Gal
  glycan array binding signal (z-score): -0.083
Gal3S(b1-3)GalNAc
  glycan array binding signal (z-score): -0.286
Gal3S(b1-3)GlcNAc
  glycan array binding signal (z-score): -0.279
[20]
  glycan array binding signal (z-score): -0.23
Gal3S(b1-4)Glc
  glycan array binding signal (z-score): -0.146
Gal3S(b1-4)Glc6S
  glycan array binding signal (z-score): -0.236
Gal3S(b1-4)GlcNAc
  glycan array binding signal (z-score): -0.266
Gal3S(b1-4)GlcNAc6S
  glycan array binding signal (z-score): -0.003
[21]
  glycan array binding signal (z-score): -0.141
[22]
  glycan array binding signal (z-score): -0.263
Gal3S4S(b1-4)GlcNAc
  glycan array binding signal (z-score): -0.246
Gal3S6S(b1-4)GlcNAc
  glycan array binding signal (z-score): -0.004
Gal3S6S(b1-4)GlcNAc6S
  glycan array binding signal (z-score): -0.228
Gal4S(b1-4)GlcNAc
  glycan array binding signal (z-score): -0.309
Gal4S6S(b1-4)GlcNAc
  glycan array binding signal (z-score): -0.292
Gal6P(b1-4)GlcNAc
  glycan array binding signal (z-score): 0.093
Gal6S(b1-3)GlcNAc
  glycan array binding signal (z-score): -0.202

— the supplement of paper PMC8728848
